Reference: paper PMC7819943, “Rice protein-binding microarrays: a tool to detect cis-acting elements near promoter regions in rice”
Some of the results follow.

Each sequence was assayed against T1, OsWOX13 (Oryza sativa, UniProt Q5QMM3 1-267) (assay: protein-binding microarray (RPBM); PBS, 2% BSA, 51.3 ng/ul salmon testes DNA, 50 uM zinc acetate, 200 nM TF, 25 C, 1 h; high values mean tight binding). Conditions: protein: recombinant; tags: N-terminal polyhistidine and DsRed monomer fusion (pET32a); label: CyDye5-dUTP incorporated in the synthesized complementary strand; 3' TTTTT single-stranded linker to array surface; dsDNA, one strand shown.
T1 sequence: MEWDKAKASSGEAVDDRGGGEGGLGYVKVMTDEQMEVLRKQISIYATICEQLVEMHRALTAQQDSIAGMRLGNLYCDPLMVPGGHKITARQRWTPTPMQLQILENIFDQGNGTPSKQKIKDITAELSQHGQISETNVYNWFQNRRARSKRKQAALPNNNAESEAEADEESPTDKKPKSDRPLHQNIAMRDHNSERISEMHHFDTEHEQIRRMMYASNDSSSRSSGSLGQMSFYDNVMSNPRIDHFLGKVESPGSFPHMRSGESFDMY
Outline: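 The binding signal for each feature is its fluorescence intensity in arbitrary units. An Axon 4000B scanner was used to read a custom Agilent array that had been made double-stranded with Cy5-dUTP primer extension, blocked with 2% BSA, incubated at 25 °C for 1 h with 200 nM protein in PBS, 2% BSA, salmon testes DNA and 50 µM zinc acetate, and washed. The protein was an N-terminal polyhistidine–DsRed transcription factor fusion from E. coli BL21-CodonPlus, purified on Ni–NTA.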

| Sequence | binding signal |
| --- | --- |
| GCTTTCTATCAATTTCGGCCAAATCCATCCATAGAATGGTCGGAGTCACCTAGTGCAG | 6660 fluorescence intensity (a.u.) |
| TATAGCTGATTTCTTTAATTAACAAACTCACAAATCGCGCCGGAGTCACCTAGTGCAG | 36000 fluorescence intensity (a.u.) |
| CCTCCTATTGATGCAAATTAGTTTGCAGTTTGTTTCGAACCGGAGTCACCTAGTGCAG | 11600 fluorescence intensity (a.u.) |
| TCTACTATAGCAATTGATTAACACGCTAAATAAGCAAGTACGGAGTCACCTAGTGCAG | 7340 fluorescence intensity (a.u.) |
| CTTGTCTTATTTGATTGTTGCATTTACATTTATGCAATTTCGGAGTCACCTAGTGCAG | 9350 fluorescence intensity (a.u.) |
| ATTCTCTCTTTTGCTCGCTTTGTTCCCTTTTCTTTCTTTTCGGAGTCACCTAGTGCAG | 3770 fluorescence intensity (a.u.) |
| GTTGTTCATTAACTAGATTATGTACTGAATCAGAGCTTAGCGGAGTCACCTAGTGCAG | 5040 fluorescence intensity (a.u.) |
| GAAGTAATAAATTGCTAATATGATCAATTGTTCGACTGACCGGAGTCACCTAGTGCAG | 18100 fluorescence intensity (a.u.) |
| GGTGCAGCTGATTAGATTGCTCTGCTAACATCTGAGTGAACGGAGTCACCTAGTGCAG | 16900 fluorescence intensity (a.u.) |
| ATTGTCATAATTTTATTATCAAATCCCACCGAGAATCTAGCGGAGTCACCTAGTGCAG | 3790 fluorescence intensity (a.u.) |
| GTTGCTTAATTGGTTAGGTTTCTTATGGTGGAGCTGCCCACGGAGTCACCTAGTGCAG | 31300 fluorescence intensity (a.u.) |
| CTTGCTGAATCGTCATTGATAATTAGGGGAGGAGGAACAACGGAGTCACCTAGTGCAG | 5350 fluorescence intensity (a.u.) |
| CTTGATTGACGACCATCTCGTGGTTACCAATTCCATCACCCGGAGTCACCTAGTGCAG | 60000 fluorescence intensity (a.u.) |
| CTATAAGAGATTGGCTGGATAAGGGACATGACAGGTCTCCCGGAGTCACCTAGTGCAG | 10100 fluorescence intensity (a.u.) |
| GGGGAGTCAATTATAGGGCATTAAATGACCTTTTCAATATCGGAGTCACCTAGTGCAG | 15300 fluorescence intensity (a.u.) |
| GACAAATTTGTAATAGGAGATTTAATTAACCCTATCATTCCGGAGTCACCTAGTGCAG | 33900 fluorescence intensity (a.u.) |
| TACTTCTTCCCTAATTAGAGTCCAAAAGCTGATAAGGCACCGGAGTCACCTAGTGCAG | 3390 fluorescence intensity (a.u.) |
| ATCTAAATTTTATAACATAATCATAGATCCAATCCAAATCCGGAGTCACCTAGTGCAG | 16400 fluorescence intensity (a.u.) |
| TAAAACTCAATTAGTTACACGTTATTATTACCTCACTTGGCGGAGTCACCTAGTGCAG | 8990 fluorescence intensity (a.u.) |
| AATAATGTAAAATTTTAGTATCATATCTCTATCTCTACTACGGAGTCACCTAGTGCAG | 7000 fluorescence intensity (a.u.) |
| ATGACTAAACATTAACTCTCAAAATTAGCTCTGGGCTAATCGGAGTCACCTAGTGCAG | 8450 fluorescence intensity (a.u.) |

| Sequence | binding signal |
| --- | --- |
| GAGTTGACGGGGACGAGATTGGCGGATTTGGGGATGCGGCCGGAGTCACCTAGTGCAG | 24100 fluorescence intensity (a.u.) |
| TCCAAAATTGGGCGTCTTGACAAGTTCATTGAACGTGTAACGGAGTCACCTAGTGCAG | 5560 fluorescence intensity (a.u.) |
| ATATCCTATAGATAGATTGAAATTGTAGGGAAAATTGTGACGGAGTCACCTAGTGCAG | 8140 fluorescence intensity (a.u.) |
| GGCACCAATGATTGTATCTGGTTAGTGGAGTAATTGAGACCGGAGTCACCTAGTGCAG | 17800 fluorescence intensity (a.u.) |
| CATGCGTGATTTATTTAACTGAAAAGAAATCTAAAGGCACCGGAGTCACCTAGTGCAG | 44700 fluorescence intensity (a.u.) |
| AGTAGATTTTGACATGCTGTGTGTTAACAATGGGAGTAGACGGAGTCACCTAGTGCAG | 3550 fluorescence intensity (a.u.) |
| CCTCGCATTCATTCCAATTAGTGATCTTGAGGGGCTCCATCGGAGTCACCTAGTGCAG | 5820 fluorescence intensity (a.u.) |
| AGCTTGACAGGAGGCTGTCCGGTGTGGAGGGGTTGGACCACGGAGTCACCTAGTGCAG | 9160 fluorescence intensity (a.u.) |
| GAAAACAAGGAGATTGAAGTTTAGAGTTGAGGGAAAGAACCGGAGTCACCTAGTGCAG | 4270 fluorescence intensity (a.u.) |
| ATCAATCTCTTTAATTTCCTCCATCTTTCTTCTAAACCCACGGAGTCACCTAGTGCAG | 3420 fluorescence intensity (a.u.) |
| AAATATATGTTCAATTAACAAGCAAGTCAATTCGTGACATCGGAGTCACCTAGTGCAG | 4070 fluorescence intensity (a.u.) |
| TCCACCAATCAGACCGGTGGTAATCGAGAGTTCAGACCAGCGGAGTCACCTAGTGCAG | 19700 fluorescence intensity (a.u.) |
| GCTAAATACAAATTTGTTGCCACGGTTATTTATGGTGTGGCGGAGTCACCTAGTGCAG | 11000 fluorescence intensity (a.u.) |
| AGGGATCAATGATCAATCTAAACCTACCGTGGGATCGACGCGGAGTCACCTAGTGCAG | 7430 fluorescence intensity (a.u.) |
| GTATCAATTAGGTCTACACGACAGGCGATATTGTTTGGTTCGGAGTCACCTAGTGCAG | 10300 fluorescence intensity (a.u.) |
| CTCATGATTGGTATCATTAGATTTTGCGTAATCCATTTGACGGAGTCACCTAGTGCAG | 40000 fluorescence intensity (a.u.) |
| TTAATTTTCGTGGTTAATTAGCACCCAAGTAGCTAGGTAGCGGAGTCACCTAGTGCAG | 17300 fluorescence intensity (a.u.) |
| GTTCCAATTTCAATCAAATTTTCAATTTTGGCGTGAACTACGGAGTCACCTAGTGCAG | 35200 fluorescence intensity (a.u.) |
| GTACAAGTCACGTTTAAATTAATTATGATGATCTATTAGTCGGAGTCACCTAGTGCAG | 20000 fluorescence intensity (a.u.) |
| GAGAGCTTAATTATCACCGATGTCCCATGCATCGATCTGCCGGAGTCACCTAGTGCAG | 7950 fluorescence intensity (a.u.) |
| AAAAGAATTAATTGTATTAGATTAATTAAACCCTACAAAGCGGAGTCACCTAGTGCAG | 34900 fluorescence intensity (a.u.) |
